Screen size: about 310,000 compounds; about 14,000 (4.5%) showed an effect of 50% or more. The effect is printed as a negative number. Some of the results follow.
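Note: peak tail current of the secondary pulse compared with the same well before compound.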

For this experiment, the target named is human ether-à-go-go-related gene (hERG) potassium channel (human, UniProt Q12809). Kind of experiment: primary screen, population patch clamp on CHO cells stably expressing hERG.
Sequence of human ether-à-go-go-related gene (hERG) potassium channel (Q12809 whole entry, looked up): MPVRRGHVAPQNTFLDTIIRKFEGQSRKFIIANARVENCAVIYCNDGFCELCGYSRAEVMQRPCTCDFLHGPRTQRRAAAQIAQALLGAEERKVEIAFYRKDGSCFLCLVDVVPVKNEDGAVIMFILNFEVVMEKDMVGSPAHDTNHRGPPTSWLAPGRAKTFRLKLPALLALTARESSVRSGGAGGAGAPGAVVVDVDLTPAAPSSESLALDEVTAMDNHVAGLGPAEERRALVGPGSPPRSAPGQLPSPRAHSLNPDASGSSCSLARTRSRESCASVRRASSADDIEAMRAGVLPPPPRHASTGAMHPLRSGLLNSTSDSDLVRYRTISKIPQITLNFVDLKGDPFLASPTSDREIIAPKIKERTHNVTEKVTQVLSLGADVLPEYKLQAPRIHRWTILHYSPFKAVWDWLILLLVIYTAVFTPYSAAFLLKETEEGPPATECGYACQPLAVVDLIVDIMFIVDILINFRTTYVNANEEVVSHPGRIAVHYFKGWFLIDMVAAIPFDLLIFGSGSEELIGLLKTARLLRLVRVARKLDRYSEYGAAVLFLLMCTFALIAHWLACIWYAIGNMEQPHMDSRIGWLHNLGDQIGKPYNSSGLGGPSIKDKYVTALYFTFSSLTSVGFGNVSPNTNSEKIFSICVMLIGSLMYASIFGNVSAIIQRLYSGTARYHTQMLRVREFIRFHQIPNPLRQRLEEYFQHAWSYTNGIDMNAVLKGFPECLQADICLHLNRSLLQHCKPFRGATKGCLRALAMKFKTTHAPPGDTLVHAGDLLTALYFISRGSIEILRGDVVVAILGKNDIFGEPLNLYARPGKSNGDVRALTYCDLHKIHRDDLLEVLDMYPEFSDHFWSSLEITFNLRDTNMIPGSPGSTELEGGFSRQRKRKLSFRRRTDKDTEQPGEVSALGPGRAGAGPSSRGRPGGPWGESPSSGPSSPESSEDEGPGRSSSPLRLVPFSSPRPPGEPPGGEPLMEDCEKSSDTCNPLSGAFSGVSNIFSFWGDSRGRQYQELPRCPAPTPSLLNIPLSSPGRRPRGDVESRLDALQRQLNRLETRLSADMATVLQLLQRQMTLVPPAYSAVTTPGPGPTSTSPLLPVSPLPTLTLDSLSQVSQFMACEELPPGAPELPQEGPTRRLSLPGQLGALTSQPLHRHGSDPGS
`CSCCC(NC(=O)C1CCC(C)CC1)C(=O)Nc1ccc(NC(C)=O)cc1` (stereo not drawn): the “hERG current change (%, negative = inhibition) at 10uM” value is -6.02%. On to `Cn1nnc2sc3c(c2c1=O)CCCC3`, for which the “hERG current change (%, negative = inhibition) at 10uM” value came out at 15.3%.

In the case of `CN1CCN(c2c(/C=N/O)c3ccccc3n2C)CC1`, the “hERG current change (%, negative = inhibition) at 10uM” value was -51.5%. For the compound `O=C(c1cccs1)N1N=C(c2ccccc2)CC1c1ccc(O)cc1` (stereo not drawn), the “hERG current change (%, negative = inhibition) at 10uM” value was determined as 14.7%. Next, `CCOc1ccc(NC(=O)CSc2nnnn2-c2ccc(C(N)=O)cc2)cc1`: 20.7%.

Take `CCS(=O)(=O)N1CCC(C(=O)Nc2ccc(C(C)=O)cc2)CC1`: the “hERG current change (%, negative = inhibition) at 10uM” value is 10.9%. Regarding `CC1(C)OC2CC3C4CC(F)C5=CC(=O)C=CC5(C)C4(F)C(O)CC3(C)C2(C(=O)CO)O1` (stereo not drawn), the “hERG current change (%, negative = inhibition) at 10uM” value is -7.01%.

For the compound `CCOC(=O)[C@@H]1CCNC[C@@H]1c1ccccc1.Cl`, the “hERG current change (%, negative = inhibition) at 10uM” value was 13%. For `CCN(CC)S(=O)(=O)c1ccc(C)c(NC(=O)CSc2nc3ccc(C)cc3[nH]2)c1`, the “hERG current change (%, negative = inhibition) at 10uM” value is on record as -1.14%. In the case of `Cc1ccc(N(CC2CO2)S(=O)(=O)c2ccc([N+](=O)[O-])cc2)cc1` (stereo not drawn), the “hERG current change (%, negative = inhibition) at 10uM” value is on record as -69.3%.

Regarding `Cc1ccc(C(=O)Nc2ccccc2N2CCN(C(=O)C(C)C)CC2)cc1C`, the “hERG current change (%, negative = inhibition) at 10uM” value is given as -18.7%. In the case of `CCN(CC)C(=O)CSc1nc2ccccc2c(=O)n1CCC(=O)NCCc1ccc(OC)c(OC)c1`, the “hERG current change (%, negative = inhibition) at 10uM” value is -11.6%.

`COc1ccc(N2C(=O)c3ccccc3S2(=O)=O)cc1`: the “hERG current change (%, negative = inhibition) at 10uM” value turned out to be 0.492%. The result for `COc1ccc(OC)c(CNn2c(-c3ccccc3F)nc3ccccc3c2=O)c1` reads -16.5%; that for `O=C(NCC1CCCO1)c1ccc(Oc2ccc([N+](=O)[O-])cc2Cl)cc1` (stereo not drawn), -41.6%.

As to `Cc1oc(-c2cccc(Cl)c2)nc1CN1CCCC(C(=O)NCc2ccco2)C1` (stereo not drawn), the “hERG current change (%, negative = inhibition) at 10uM” value is -73%.

As to `C=CCNC(=O)COc1ccc(N(C)S(=O)(=O)c2ccc(NC(C)=O)cc2)cc1`, the “hERG current change (%, negative = inhibition) at 10uM” value is 6.61%.

Regarding `C[C@@]12CCC3[C@@](CCC4[C@@]3(C)CCC[C@@]4(C)C(=O)N3CCCCC3)(CC1=O)C2` (stereo partly drawn), the “hERG current change (%, negative = inhibition) at 10uM” value came to 7.27%. In the case of `Cc1cc(C)n(C(=O)COc2c(C)cccc2C)n1`, the “hERG current change (%, negative = inhibition) at 10uM” value turned out to be 11%. As for `CC/C(=N\O)C(C)(C)/[N+]([O-])=C/c1ccc(Br)cc1`, the “hERG current change (%, negative = inhibition) at 10uM” value worked out at 5.28%.

On to `COc1ccc(C(=O)NC2CCc3ccccc32)cc1OC1CCN(C(C)=O)CC1` (stereo not drawn), for which the “hERG current change (%, negative = inhibition) at 10uM” value was -0.012%.

Consider `COc1ccc(Nc2cc(=O)oc3ccccc23)cc1`, for which the “hERG current change (%, negative = inhibition) at 10uM” value was determined as 4.33%.

For the compound `COc1ccc(NC(=O)COc2ccc(N(C)S(=O)(=O)c3ccc(Cl)cc3)cc2)cc1`, the “hERG current change (%, negative = inhibition) at 10uM” value is listed as 5.33%. Turning to `CCCNC(=O)C1CCN(S(=O)(=O)c2ccc(-c3nn[nH]n3)cc2)CC1`, the “hERG current change (%, negative = inhibition) at 10uM” value is reported as 1.91%. As for `O=C(Nc1ccc2c(c1)OCO2)N1CCN(Cc2ccco2)CC1`, the “hERG current change (%, negative = inhibition) at 10uM” value came to 6.32%.

`Cc1cccc(N2C(=O)NC(=O)/C(=C\c3cnc(-c4ccccc4)nc3)C2=O)c1`: the “hERG current change (%, negative = inhibition) at 10uM” value was -3.11%.

Take `CC(C)(C)[C@@H]1CCC(=O)N(CC[C@H](Sc2ccccc2)c2ccccc2)CC1`: the “hERG current change (%, negative = inhibition) at 10uM” value was 17.1%.

Consider `O=S(=O)(c1ccc(Cl)c(NC(=S)N/N=C/c2c(F)cccc2F)c1)N1CCOCC1`, for which the “hERG current change (%, negative = inhibition) at 10uM” value stood at 18.1%. On to `COCCCN1C(=O)C(=O)/C(=C(/O)c2ccc(S(=O)(=O)N3CCOCC3)cc2)C1c1ccc(Cl)cc1` (stereo not drawn), for which the “hERG current change (%, negative = inhibition) at 10uM” value turned out to be 14.6%. For the compound `COc1ccccc1N1CCN(C(=O)CCS(=O)(=O)c2ccc3c(c2)oc(=O)n3C)CC1`, the “hERG current change (%, negative = inhibition) at 10uM” value was 2.61%. In the case of `C[C@]1(OC(=O)/C=C/c2ccccc2)C[C@@H](O)[C@]2(O)C=CO[C@@H](O[C@@H]3O[C@H](CO)[C@@H](O)[C@H](O)[C@H]3O)[C@@H]21`, the “hERG current change (%, negative = inhibition) at 10uM” value was determined as 1.84%.

Take `Cc1ccc(-c2ccc(=O)n(CC(=O)NCc3ccc(F)cc3)n2)cc1`: the “hERG current change (%, negative = inhibition) at 10uM” value is recorded as -20.2%. Next, `CCC(C)N(C(=O)COC(=O)c1nc(Cl)ccc1Cl)C1CCS(=O)(=O)C1` (stereo not drawn): 0.886%; `CN(C)CCCn1c(N)c(C#N)c2nc3ccccc3nc21`: -11%; `CCOC(=O)c1nn(-c2ccccc2)c(C(=O)OCC)c1N`: 5.84%. As for `N#Cc1cccc(NC(=O)COC(=O)c2ccccc2C(=O)c2ccc(Cl)c([N+](=O)[O-])c2)c1`, the “hERG current change (%, negative = inhibition) at 10uM” value was 1.77%. In the case of `COc1cc2c(cc1NC(=O)Nc1ccccc1)oc1ccccc12`, the “hERG current change (%, negative = inhibition) at 10uM” value stood at 19.5%. For `COc1cc(CCCN2CCNC[C@H]2Cc2ccc(O)cc2)cc(OC)c1OC`, the “hERG current change (%, negative = inhibition) at 10uM” value is on record as 9.33%.

Take `CCOc1cc(NC(=O)c2ccco2)c(OCC)cc1NC(=O)COc1ccccc1C`: the “hERG current change (%, negative = inhibition) at 10uM” value turned out to be 26.4%. In the case of `CCOC(=O)C1=C(N)Oc2c(oc(CO)cc2=O)C1c1ccc(F)c(F)c1` (stereo not drawn), the “hERG current change (%, negative = inhibition) at 10uM” value is 1.95%. Next, `Cc1cccc(NC2SC(=O)N(CC(=O)O)C2=O)c1` (stereo not drawn): 3.59%; `O=C(COc1ccc2c3c(c(=O)oc2c1)CCC3)NCc1ccncc1`: -10.5%.

Values taken from article PMC4336329 (PLoS ONE, 2015).
